Screen size: about 48,000 compounds; about 120 (0.25%) were called active. Another 4% or so got no clear call; they are omitted. Calls follow the shape of the dose curve; as a rule, active = well fitted activation curve with a large enough effect; inconclusive = small, poorly fitted or top-dose-only effect, or another doubt; inactive = no such curve, though single readings can be large or run the other way. This is one part of the list.
Assay: Primary qHTS for Identification of Small Molecule Activators of Huntingtin-Antisense Promoter Activity; also: nearly all actives have a fitted effect of over 55% in size
Details: HEK293 HTT-AS promoter firefly luciferase reporter, 24 h; series mostly up to 57.5 µM; activity change, positive = activation: at the top concentration
Method in brief: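 HEK293 cells carrying firefly luciferase reporters were seeded at 2,500 per well in Opti-MEM and cultured for 24 h. They were then treated with compounds at up to 57.5 uM final for 24 h at 37 degrees C before Dual-Glo luminescence readout.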

Activity change, positive = activation, inactive:
CC(C)CCNC(=O)CSc1c2c(nc3ccc(Cl)cc13)CCCC2 -47.4%, CCOc1ccc(CNC(=O)C2CCCN(S(=O)(=O)c3ccc4c(c3)CCCC(=O)N4)C2)cc1 (stereo not drawn) -31.9%, Cc1cccc(-c2nc(SCC(=O)Nc3cccc(C(F)(F)F)c3)n3[nH]c(=O)cc3n2)c1 -14.3%, Cc1cc(C(=O)NCc2ccccc2C)c2c(C)nn(-c3cccc(F)c3)c2n1 -12.5%, CCOC(=O)C1=C(CN2CCN(CC)CC2)NC(=O)NC1c1ccc(Cl)cc1 (stereo not drawn) -3.91%, CCCCCCn1c(CNC(=O)c2ccccc2)nc2ccccc21 -18.9%, CCCn1c(=O)sc2cc(NC(=O)c3ccccc3OCC)ccc21 -4.45%, CC(C)Sc1ncc(Cl)c(C(=O)Nc2ccc(S(=O)(=O)Nc3ncccn3)cc2)n1 -11.3%, Cn1c(=O)cc(SCC(=O)N2CCN(c3ccccc3F)CC2)c2cc(Cl)ccc21 -3.11%, COc1ccc(CNC(=O)CSc2n[nH]c(-c3ccc(OC)cc3)n2)cc1 -34.8%, CC(C)c1ccc2c(c1)-c1ccccc1S(=O)(=O)N2CC(=O)N1CCCCC1 29.6%, COc1cc(Cn2c(=O)sc3ccccc32)ccc1OCCC(C)C -23%, Cc1cc(Cl)ccc1OCC(=O)Nc1c(C(=O)c2ccccc2)oc2ccccc12 -13.3%, O=C(CSc1ncc(-c2ccccc2)[nH]1)Nc1cccc(C(F)(F)F)c1 -2.67%, Cc1ccccc1-c1nc(CS(=O)(=O)CC(=O)Nc2cc(Cl)cc(Cl)c2)c(C)o1 -39%, CCn1nc(C)c(CCN(C)C(=O)Nc2cc(C)cc(C)c2)c1C 5.13%, O=C(Nc1cnc(N2CCC(N3CCCCC3)CC2)c(C(=O)O)c1)c1ccc(Br)cc1 -6.97%, Cc1ccc(CSc2nc3ccc(NC(=O)COc4ccc(F)cc4)cc3s2)cc1 -3.63%, COc1ccccc1NC(=O)c1c(NC(=O)Cc2ccccc2)sc2c1CCC(C(C)(C)C)C2 (stereo not drawn) 15.4% [at 11.5 µM, percent change from vehicle, -100% = no light], CCc1ccc(CNC(=O)Cn2c(-c3cccs3)cc3cc(F)ccc32)cc1 -34.5%, COc1ccc(-n2c(=O)c3c(c4cc(OC)ccc4n3C)n(Cc3ccc(F)cc3Cl)c2=O)cc1 -17.3%, COc1ccc(-c2cc(C(C)=O)c(C)n2CCC(=O)Nc2ccc(C(F)(F)F)cc2)cc1 -41%, Nc1nonc1C(=O)NCCNCc1ccc(Cl)c(Cl)c1 -10.2%, COc1ccccc1NC(=O)Cn1c(=O)n(Cc2ccccc2)c(=O)c2c3c(sc21)CN(C(C)=O)CC3 -10.1%, CCn1ccc2c(OCC(=O)NCc3ccc(C)cc3)cccc2c1=O -23.1%, Cc1cc(C)nc(-n2nc(C)c3c2NC(=O)CC3c2cc(F)ccc2F)n1 (stereo not drawn) -7.35%, CCN(Cc1ccccc1)C(=O)CN1C(=O)COc2ccc(S(=O)(=O)N(CC)CC)cc21 -25.4%, Cc1ccc(C)c(N2CCN(C(=O)CCn3c(=O)c4cccn4c4cccnc43)CC2)c1 -17.9%, COc1ccccc1Nc1nc(-c2ccccc2Cl)c2cc(Br)ccc2n1 -10.1%, CC1=C(C(=O)Nc2ccc(Cl)cc2)C(C(C)C)n2nc(SCc3ccc(Cl)cc3)nc2N1 (stereo not drawn) -9.86%, COc1ccccc1CNC(=O)Cn1c(=O)oc2cc(S(=O)(=O)NCc3ccccc3)ccc21 -33.8%, O=C(NCC1CCN(Cc2cccc(Cl)c2)CC1)c1cc2ccc3cccnc3c2[nH]1 -8.45%, COc1ccc(OC)c(CCNC(=O)C2=C(C)C(=O)OC23CCC(C)CC3)c1 (stereo not drawn) -16.8%, O=C(Cn1nc(C(F)(F)F)c2c1CCC2)Nc1ccc(Cl)cc1 -29.3%, Cc1cc(C)c2c(CC(=O)Nc3ccc(S(=O)(=O)Nc4ncccn4)cc3)coc2c1 -2.56%, Cc1ccccc1CCNC(=O)C1CCN(c2nc3ccccc3nc2C(F)(F)F)CC1 -6.9%, COC(=O)c1cc(NC(=O)c2sc3ncn(Cc4cccc(F)c4)c(=O)c3c2C)cc(C(=O)OC)c1 -7.76%, CCOc1ccc(C(=O)NCCn2cc(SCC(=O)Nc3ccccc3)c3ccccc32)cc1 -61.6%, COc1cc(CN(C(=O)c2cccc(C)c2)c2ccccn2)cc(OC)c1OC -22.6%, Cc1ccc(-n2c(SCC(=O)NCc3ccccc3)nc3c([nH]c4ccccc43)c2=O)cc1 -16.9%, COc1ccccc1NC(=O)CCS(=O)(=O)c1cc2c3c(c1)CCN3C(=O)CC2 2.29%, O=C(NCc1ccccc1Cl)c1cc(=O)[nH]c2ccc(S(=O)(=O)N3CCCCC3)cc12 -11.1%, CC[C@@H]1C=C(C)C[C@H](C)C[C@H](OC)[C@H]2O[C@@](O)(C(=O)C(=O)N3CCCC[C@@H]3C(=O)O[C@H](C(C)=C[C@@H]3CC[C@H](Cl)[C@H](OC)C3)[C@H](C)[C@@H](O)CC1=O)[C@H](C)C[C@H]2OC -6.95%, CCC1CCCCN1C(=O)c1nn(-c2ccc(OC)cc2)c(=O)c2c1c1ccccc1n2C (stereo not drawn) -8.05%, Cc1ccc2c(c1C)NC(=O)CC2c1ccc(Cl)cc1Cl (stereo not drawn) -33.3%, CCC(O)c1cc2c(cc1NC(=O)c1ccccc1F)OCCO2 (stereo not drawn) 3.18%, O=C(CC1N=C2c3ccccc3N=C(SCc3cccc(F)c3)N2C1=O)NCc1ccc2c(c1)OCO2 (stereo not drawn) -12.9%, Cc1ccc(OCC(=O)Nc2cccc(C(=O)OCc3cc(=O)n4nc(C)sc4n3)c2)cc1 -39.4%, OCCOCCN1CCN(C(c2ccccc2)c2ccc(Cl)cc2)CC1 (stereo not drawn) -0.307%, O=C(O)c1ccc(NC(=O)c2cn(-c3ccccc3)nc2-c2ccc(Br)cc2)cc1 3.48%, COc1cccc(CNC(=O)C(=O)Nc2ccc3nc4n(c(=O)c3c2)CCCCC4)c1 2.89%, Cc1ccc(N2CCN(C(=O)c3cc(S(=O)(=O)N4CCCCC4)c[nH]3)CC2)c(C)c1 -9.33%, Cc1ccc(-c2cc(C(=O)Oc3ccccc3Cl)no2)cc1C 2.92%, CCc1ccc(C(=O)Nc2cc(CN3CCN(C)CC3)cc(C(F)(F)F)c2)cc1C#Cc1cnc2ccnn2c1 -30%, Cc1ccc2nc(Cl)c3cc(C(=O)NC4CCC(C)CC4)sc3c2c1 (stereo not drawn) 0.577%, Cn1c2ccccc2c2c3c(c4c5ccccc5n(CCC#N)c4c21)CNC3=O -40.4%, CCc1cccc(C)c1NC(=O)Cn1ccn(Cc2ccc(Cl)cc2)c(=O)c1=O -15.1%, COc1ccc(NC(=O)CN(C)S(=O)(=O)c2cnc[nH]2)cc1Cl 0.148%, Cc1ccc(-c2[nH]c(-c3ccccc3)nc2SCC(=O)NCC2CCCO2)cc1 (stereo not drawn) -19.7%, Cc1cc(CCCOc2c(C)cc(-c3noc(C(F)(F)F)n3)cc2C)on1 -7.2%, COc1ccc(-c2noc(COc3ccc(Br)cc3C)n2)cc1OC -10%, CCc1ccccc1NC(=O)Cn1c(=O)n(Cc2ccco2)c(=O)c2sc3ccccc3c21 -13.6%, Cc1ccc(NC(=O)Cn2c(=O)n(Cc3ccc4c(c3)OCO4)c(=O)c3ccccc32)c(C)c1 -9.21%, Cc1ccc(C)c(N2CCN(S(=O)(=O)c3cnc(N)nc3)CC2)c1 -24.5%, Cc1ccc2nc(N3CCN(c4cccc(C)c4C)CC3)c3nncn3c2c1 -3.8%, CCOC(=O)c1ccc2c(c1)N(Cc1ccccc1)C(=O)c1ccccc1S2 -21%, CC(C)CCn1c(=O)c2sccc2n2c(CCCC(=O)NC3CCC(C)CC3)nnc12 (stereo not drawn) -13.7%, CCCCc1ccc(NC(=O)CSc2nc3ccccc3nc2N2CCOCC2)cc1 -10.2%, O=C(Nc1cc(Cl)cc(Cl)c1)c1ccc(F)c(S(=O)(=O)NC2CCCCC2)c1 -36.3%, O=C(NCCS(=O)(=O)N1CCN(c2ccc(F)cc2)CC1)C1CC(=O)N(c2ccc(F)cc2)C1 (stereo not drawn) 10.8%, COc1ccc(CCNC(=O)CCSCc2ccccc2Cl)cc1OC 1.22%, CC(C)c1ccc2oc(-c3ccc(NC(=O)c4cc5ccccc5o4)cc3)nc2c1 -2.64%, Cc1cccc(OCC(=O)N(Cc2ccccc2)c2ccccn2)c1 -18.5%, COc1ccc(CCNC(=O)c2ccc3c(Cl)c4c(nc3c2)CCCC4)c(OC)c1 -36.8%, COC(=O)c1cnc(N2CCN(c3ccc(F)cc3)CC2)c2ccccc12 -5.25%, CS(=O)(=O)N1CCCc2cc(C(=O)Nc3cccc(C(F)(F)F)c3)ccc21 -39.5%, CC1CCC(NC(=O)c2ccc(CS(=O)(=O)c3c(Cl)cccc3Cl)o2)CC1 (stereo not drawn) -32.9%, COc1ccc(OCC(=O)Nc2ccccc2C(=O)OCc2cc(=O)n3nc(C)sc3n2)cc1 -4.41%, COc1cc(-c2nc(-c3cccc(Cl)c3)c(-c3ccccc3)[nH]2)cc(OC)c1OC -29.7%, O=C(NCCN1CCCCC1)c1ccc(Cn2c(SCc3cccc(F)c3)nc3cccnc32)cc1 -3.96%, COC(=O)c1ccc(CSc2nc3c(c(=O)[nH]2)CCC3)cc1 -4.49%, COc1ccc(S(=O)(=O)c2c(SC)nn(CC(=O)Nc3cccc(C)c3C)c2N)cc1 -17.9%, Cc1ccc2c(c1)NC(=O)c1cccnc1O2 -7.41%, Cc1ccc(-c2nc(CS(=O)(=O)CC(=O)NCCc3ccccc3)c(C)o2)cc1 -9.98%, COc1ccc(CNC(=O)Cn2nc(N3CCN(c4ccccc4)CC3)ccc2=O)c(OC)c1 -6.45%, CC1=C(C(=O)Nc2ccccc2)C(c2ccncc2)n2nc(SCc3ccccc3F)nc2N1 (stereo not drawn) -3.88%, CCC(C)Nc1oc(-c2ccc(COc3ccc(Cl)cc3)o2)nc1C#N (stereo not drawn) -38%, O=C(Nc1ccc(OCc2cc(=O)n3ccccc3n2)cc1)c1ccccc1Cl 22.4%, Cc1cccc(OCC(O)Cn2c(=N)n(CCN3CCCCC3)c3ccccc32)c1 (stereo not drawn) -20.6%, CCc1ccc(CN(Cc2ccco2)C(=O)COc2ccc(Cl)c(C)c2)cc1 -15.3%, CCn1cc(C(=O)NCc2ccc(C)cc2)c(=O)c2cc(S(=O)(=O)N(C)C3CCCCC3)ccc21 0.145%, CCC(C)NC(=O)CSc1nc2c(sc3ccccc32)c(=O)n1CCc1ccc(OC)c(OC)c1 (stereo not drawn) -5.49%, CCN(CC)c1nc2c(S(=O)(=O)c3cccc(Cl)c3)nnn2c2ccsc12 -41.3%
